The list shows a part of the results.

This assay relates to HSkMC (human skeletal muscle cells). The assay is described as follows: cytotoxicity call (relative viability < 0.9). The note with it: 10 µM.
In the case of `C[C@@H]1CCCCO[C@H](CN(C)Cc2ccncc2)[C@H](C)CN([C@@H](C)CO)C(=O)c2cc(NC(=O)Cc3ccccc3)ccc2O1`, the cytotoxicity call is “inactive”.
Consider `C[C@@H]1CN([C@H](C)CO)C(=O)CCCn2nncc2CO[C@H]1CN(C)S(=O)(=O)c1ccc(Oc2ccccc2)nc1`, for which the cytotoxicity call is “inactive”.
The result for `C[C@@H]1CCCCO[C@@H](CN(C)C(=O)Nc2ccc(F)cc2)[C@@H](C)CN([C@@H](C)CO)C(=O)c2cc(NC(=O)C3CCCCC3)ccc2O1` reads “inactive”; that for `O=C(CN1CCOCC1)N[C@H]1CC[C@H](CCn2cc(C3CC3)nn2)O[C@H]1CO`, “inactive”.
For `CO[C@@H]1CN(C)C(=O)c2ccc(NS(C)(=O)=O)cc2OC[C@@H](C)N(C(=O)CN(C)C)C[C@H]1C` the value was “inactive”; for `CN1C2=CC(=O)/C(=N\NC(N)=O)C=C2C[C@H]1S(=O)(=O)O`, “inactive”.
As for `CC=Cc1ccc2n(c1=O)C[C@H]1[C@H](CO)[C@@H](C(=O)NCC3CC3)[C@@H]2N1S(=O)(=O)c1cn(C)cn1`, the cytotoxicity call was “inactive”.
For `OCc1ccccc1-n1cncn1`, the cytotoxicity call was “inactive”.
With `COc1ccc(C(=O)Nc2ccc3c(c2)C(=O)N(C)[C@@H]2CC[C@H](CC(=O)NCC4CC4)O[C@H]2CO3)cc1`, the cytotoxicity call is “inactive”.
As to `Cc1cc(C)c2cc3c(nc2c1)NCC3`, the cytotoxicity call is “inactive”.
Regarding `C[C@H](CO)N1C[C@H](C)[C@H](CN(C)C(=O)Nc2ccccc2)OCCCC[C@H](C)Oc2ccc(NC(=O)Nc3ccccc3)cc2C1=O`, the cytotoxicity call was “inactive”.
Turning to `C[C@H]1CN([C@@H](C)CO)C(=O)c2cc(NS(=O)(=O)c3ccc(Cl)cc3)ccc2O[C@@H]1CN(C)Cc1ccc(-c2ccccc2)cc1`, the cytotoxicity call was “inactive”.
For the compound `C[C@H]1CN([C@@H](C)CO)C(=O)Cc2cc(NC(=O)NC3CCCCC3)ccc2O[C@H]1CN(C)Cc1ccc(Oc2ccccc2)cc1`, the cytotoxicity call was “inactive”.
For `Cc1ccc(S(=O)(=O)N[C@H](C(=O)NCCn2cc(-c3cccc(/C=C/C(=O)NO)c3)nn2)C(C)C)cc1` the value was “inactive”; for `C[C@H]1CN([C@@H](C)CO)C(=O)c2cccc(NC(=O)C3CCOCC3)c2O[C@H]1CN(C)Cc1ccc2c(c1)OCO2`, “inactive”.
Take `c1ccc(C2C3=C(CCCC3)SC3=C2CCCC3)cc1`: the cytotoxicity call is “inactive”.
Take `Cc1ccc(S(=O)(=O)N(C)C[C@@H]2Oc3ccc(NC(=O)c4ccncc4)cc3CC(=O)N([C@@H](C)CO)C[C@@H]2C)cc1`: the cytotoxicity call was “inactive”.
The result for `C[C@@H]1CN([C@H](C)CO)C(=O)c2cc(NC(=O)Nc3ccc(C(F)(F)F)cc3)ccc2O[C@@H](C)CCCCO[C@H]1CN(C)Cc1ccccc1` reads “active”.
For `COC(=O)c1cn(CC(=O)O)nn1` the value was “inactive”.
In the case of `CC(C)C(=O)O`, the cytotoxicity call was “inactive”.
As to `C[C@H]1CN([C@@H](C)CO)C(=O)c2cc(NC(=O)Nc3ccccc3)ccc2O[C@H]1CN(C)Cc1ccc(C(F)(F)F)cc1`, the cytotoxicity call was “inactive”.
Turning to `C[C@@H]1CN([C@@H](C)CO)C(=O)c2cc(NC(=O)c3ccncc3)ccc2O[C@@H]1CN(C)S(=O)(=O)c1ccc(F)cc1`, the cytotoxicity call is “inactive”.
The result for `COc1cc([C@H]2OC[C@](O)(Cc3ccc(O[C@@H]4O[C@H](CO)[C@@H](O)[C@H](O)[C@H]4O)c(OC)c3)[C@@H]2CO)ccc1O` reads “inactive”; that for `CC(C)NC(=O)Nc1ccc2c(c1)C(=O)N([C@H](C)CO)C[C@H](C)[C@H](CN(C)S(=O)(=O)c1cn(C)cn1)OCCCC[C@@H](C)O2`, “inactive”.
As to `C[C@H](CO)N1C[C@H](C)[C@H](CN(C)S(=O)(=O)c2ccc(F)cc2)Oc2ccc(NC(=O)c3ccncc3)cc2CC1=O`, the cytotoxicity call was “inactive”.
For `C[C@@H]1CN([C@H](C)CO)C(=O)c2cc(NC(=O)NC3CCCCC3)ccc2O[C@@H](C)CCCCO[C@@H]1CN(C)C(=O)C1CCCCC1` the value was “inactive”; for `CC(C)(C)S(=O)N1Cc2cc(C(=O)NCc3ccc4c(c3)OCO4)nc(-c3cccc(C#CCC4CCCC4)c3)c2[C@@H]1CCO` (stereo not given in full), “inactive”; for `CCn1c(=O)c(-c2cc(NC(=O)Nc3ccccc3)c(F)cc2Br)cc2cnc(NC)cc21`, “inactive”.
For `Cn1c(=O)c2c(nc(NCCN)n2C)n(C)c1=O`, the cytotoxicity call was “inactive”.
For `COc1ccc(CN(C)C[C@H]2Oc3ccc(NC(=O)CCN4CCOCC4)cc3CC(=O)N([C@H](C)CO)C[C@@H]2C)cc1` the value was “inactive”; for `C[C@@H]1CCCCO[C@@H](CN(C)C(=O)C2CCCCC2)[C@@H](C)CN([C@H](C)CO)C(=O)c2cc(NC(=O)Cc3ccccc3)ccc2O1`, “inactive”.
Consider `C[C@@H]1CN([C@H](C)CO)C(=O)c2cc(NC(=O)c3ccccc3)ccc2O[C@@H](C)CCCCO[C@H]1CN(C)Cc1ccc(C(=O)O)cc1`, for which the cytotoxicity call was “inactive”.
For `COc1ccccc1NC(=O)N(C)C[C@H]1Oc2ncc(Br)cc2C(=O)N([C@H](C)CO)C[C@@H]1C`, the cytotoxicity call was “inactive”.
Regarding `Cc1noc(C)c1NC(=O)N(C)C[C@@H]1OCCCC[C@H](C)Oc2ccc(NC(=O)C3CCCCC3)cc2C(=O)N([C@H](C)CO)C[C@@H]1C`, the cytotoxicity call is “inactive”.
Regarding `O=C(C[C@H]1C=C[C@H](NS(=O)(=O)c2ccc(F)cc2)[C@H](CO)O1)N1CCC(Cc2ccccc2)CC1`, the cytotoxicity call was “inactive”.
Consider `C[C@@H]1CN([C@@H](C)CO)C(=O)c2cc(C#CC3(O)CCCC3)cnc2O[C@H]1CN(C)S(C)(=O)=O`, for which the cytotoxicity call is “inactive”.
On to `C[C@@H]1CN([C@H](C)CO)S(=O)(=O)c2ccc(C#Cc3cccc(F)c3)cc2O[C@@H]1CN(C)C(=O)CN1CCOCC1`, for which the cytotoxicity call is “inactive”.
In the case of `C[C@@H]1CN([C@@H](C)CO)C(=O)c2cc(NS(C)(=O)=O)ccc2O[C@@H]1CN(C)S(=O)(=O)c1ccccc1`, the cytotoxicity call was “inactive”.
Consider `C[C@H]1CN([C@@H](C)CO)S(=O)(=O)c2ccc(C#Cc3cccc(F)c3)cc2O[C@H]1CN(C)S(=O)(=O)c1ccccc1F`, for which the cytotoxicity call is “inactive”.
As for `C[C@@H]1CN([C@H](C)CO)S(=O)(=O)c2ccc(C#CC3CC3)cc2O[C@@H]1CN(C)C(=O)c1cccc(F)c1`, the cytotoxicity call was “inactive”.

Source of the values: the antibiotic and cytotoxicity screens of Wong et al. (2023).
